This is an account of results in the RNAGym collection of RNA variant scans (doi:10.1073/pnas.2313332121).

Variants at the floor of the assay are shown more often than the library holds them.

B1: TPR 5TU (parent)
chain: GGAUCUUCUCGAUCUAACAAAAAAGACAAAUCUGCCACAAAGCUUGAGAGCAUCUUCGGAUGCAGAGGCGGCAGCCUUCGGUGGCGCGAUAGCGCCAACGUUCUCAACUAUGACACGCAAAACGCGUGCUCCGUUGAAUGGAGUUUAUCAUG

The variants in the data set derive from B1. Briefly: polymerase ribozyme fitness, log enrichment relative to wild type (log ratio); higher = more active; in vitro selection for triplet polymerase activity. The method in brief: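 Fitness measures genotype enrichment against wild-type enrichment on a logarithmic scale, with inverse-variance-weighted averaging of replicates. The logarithm is base 2, and genotypes were kept only with ≥10 input reads and ≥1 read per output in Illumina sequencing. The sequenced libraries came from one triplicate in vitro selection round, including frozen incubation at −7 °C, of PCR-built, transcribed mutant libraries of each subunit of a heterodimeric triplet polymerase ribozyme.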
On to GGAUCUUCUCGAUGUAACAAAAAAGACAAAUCUGCCACAAAGCUUGAGAGCAUCUUCGGAUGCAGAGGCGGCAGCCUUCGGUGGGGCGAUAGCGCCAACGUUCUCAACUAUGACACGCAAAACGCGUGCUACGUUGAAUGGAGUUUAUCAUG, for which the “polymerase ribozyme fitness (log ratio)” value was ≤ -4.2. In the case of GGAUCUUCUCGAUGUAACAAAAAAGACAAAUCGGCCACAAAGCUUGAGAGCAUCUAUGGAUGAAGAGGCGGCAGCCUUCGGUGGCGUGAUAGCGCCAACGUUCUCAACUAUGACACGCAAAACGCGUGCUCCGUUGAAUGGAGUUUAUCAUG it was ≤ -4.2. In the case of GGAUCUUCUCGAUGUAACAAAAAAGACAAAUCUGACAUAAAGCUUGAGAGCAUCUUCGGCUGCAGAGGCGGCAUCCUUCGGUGGCGCGAUAGCGCCAACGUUCUCAACUUUGACACGCAAAACGCGUGCUCCGUUGAAUGGAGUUUAUCAUG it was ≤ -4.2; in that of GGAUCUUCUCGAUGUAACAAAAAAGACAAAUCUGCCACAAAGCUUGAGAGUAUCUUCGGAUGCAGAGGCGGCAGCCUUCGGUGGCGCGAUAGCGCUAACGUUCUCAACUAUGACACGCAAAACGCGUGCUCCGUUGAAUGGAGUUUAUCAUG, -3.1. With GGAUCUUCUCGAUGUAACAAAAAAUACAAAUCUGCCACAAAGCUUGAGAAUAUCUUCGGAUGCAGAGGCGGCAGCCUUCGGUGGCGCGAUAGCGCCAACGUUCUCAACUAUGACACGCAAAACGCGUGCUCCGUUGAAUGGAGUAUAUCAUG, the “polymerase ribozyme fitness (log ratio)” value is ≤ -4.2.

For GGAUCUUCUCGAUGUAACAAAAAAGACAAAUCUGCCAUAAAGCUUGAGAGCAACUUCGGAUGCAGAGGCGGCAGCCUUCGGCGGCGCGAUAGCGGCAACGUUCUCAACUAUGACACGCAAAACGCGUGCUCCGUUGAAUGGAGUUUAUCAUG, the “polymerase ribozyme fitness (log ratio)” value was ≤ -4.2. In the case of GGAUCUUCUCGAUGUAACAAAAAAGACAAAUCUGGCACAAAGCUUGAGAGCAUCUUCGGAUGCAGAGGCGGCAGCCUUCGGUCGCGCGAUAGCGCCAACGUUCUCAACUAUGACACGCAAAACGCGUCCUCCAUUGAAUGGAGUUUAUCAUG it was ≤ -4.2. Then GGAUCUUCUCGAUGUAACAAAAAAGACAAAUCUGCCACAAACCUUGAGAGCAUAUUCGGAUGCAGAGGCGGCAGCCUUCGGUGGCGUGAUAGCGCCAAUGUUCUCAACUAUGACACGCAAAACGCGUGCUCCGCUGAAUGGAGUUUAUCAUG, with ≤ -4.2. As to GGAUCUUCUCGAUGUAACAAAAAAGACAAAUCUGCCACAAAACUUGAGAGCAUCUUCGGAUGCAGAGGCGGCAGCCUUCGAUGGCGCGCUAGCGCCAACGUUCUCAACUAUGACACGCAAAACGCGUGCUCCUUUGAAUGGAGUUUAUCAUG, the “polymerase ribozyme fitness (log ratio)” value is ≤ -4.2. In the case of GGAUCUUCUCGAUGUAACAAAAAAGACAAAUCUGCCACAAAGCUUGAGAGCAUCUUCGGAUGCAGAGGCGGCAGUCUUCGGUGGCGCGAUAGCGCAAACGUUGUCAACUAUGACACGCAAAACGCGUGCUCCGUUGAAUGGCGUUUAUCAUG it was ≤ -4.2; in that of GGAUCUUCUCGAUGUAACAAAAAAGACAAAUCUGCCACAAAGCUUGAGAGCAUCUUCGGAUGCAGAGGGGGCAGCCUUCGGUGGCGCGAUAGCGCAAACGUUCUCAACUAUGACACGCAAAACACGUGCUCCGUUGAAUGGAGUUUAUCAUG, -3.69; in that of GGAUCUUCUCGAUGUAACAAAAAAGACAAAUCUGCCACAAAGCUUGAGAGCAUCUUCGGAUGCAGAGGCGGCAGCCUUCGGUGGAGCGAUAGCGCCAACGUUCUCAACUAUGACAUGCAAACCGCGUGCUCCGUUGAAUGGAGUUUAUCAUG, ≤ -4.2. With GGAUCUUCUCGAUGUAACAAAAAAGACAAAUCUGCCACAAAGCUUGAGAGCAUCUUCGGAUGCAGAGGCGGCAGCCUUCGGUAGCGCGAGAUCGCCAACGUGCUAAACUAUGACACGUACAACGCGUGCUCCGUUGAAUGGAGUUGAUCAUG, the “polymerase ribozyme fitness (log ratio)” value is ≤ -4.2. Then GGAUCUUCUCGAUGUAACAAAAAAGACAAAACUGCCACAAAGCUUGAGAGCAUCUUCGGAUGCAGAGACGGCAGCCUUCGGUGGCACGAUGGCGCCAACGUUCUCAAAUAUGACACGGAAAACGCGUGCUCCGUUGAAUGGAGUUUAUCAUG, with ≤ -4.2; and GGAUCUUCUCGAUGUAACAAAAAAGACAAAUCUGCCACAAAGCUUGAGAGCAUGUGCGGAUGCAGAGGCGGCAGCCUUCGGUCGCGGGAGAGCGCCAACGGUCUCAACUAUGACACGAUAAACGCGUGCACCGUUGAAUGGAGUUUAUCAUG, with ≤ -4.2; and GGAUCUUCUCGAUGUAACAAAAAAGACAAAUCUGCCACAAAGCUUGAGAGCAUCUUCGGAUGCAGAGGCGGCAGCGUUCGGUGGCGCGCUAGGGGCAACGUUCUCAACUAUGACACGCAAAACGCGGGCUCCGUUGAAUGGAGUUUAUCAGG, with ≤ -4.2. Then GGAUCUUCUCGAUGUAACAAAAAAGACAAAUCUGCCACAAAGCUUGAGAGCAUCUUCGGAUGCAGAGGCGGCAGCCUUCGGUGGCGCGAUAGUGCCAACGUUCUCAAGUAUGACAAGCAAAACGCGUGCUCCGUUGAAUGGAGUUUAUCAUG, with ≤ -4.2. As for GGAUCUUCUCGAUGUAACAAAAAAGACAAAUCUGCCACAAAGCUUGAGAGCAUCUUCUGAUGCGGAGGCGGCAGCCUUCGGUGGUGCGAUAGCGCCAACGUUCUCAACUAUGACACGCAAAACGCGUGCUCCGUUGAAUGGAGUUUAUCAUG, the “polymerase ribozyme fitness (log ratio)” value was ≤ -4.2. In the case of GGAUCUUCUCGAUGUAACAAAAAAGACAAAUCUGCCACAAAGCUUGAGAGCAUCUUCGGAUGCAGAGGCGGCAGACUUCGGGGGCGCGAUAGCGCCAACGUUCUCAACUAUGACACGAAAAACGCGUGCUCCGUUGAAUGGAGUUUAUCAUG it was ≤ -4.2.
